Data taken from PubChem BioAssay AID488969 (Vanderbilt High Throughput Screening Facility, 2010).
In all, about 110,000 compounds were measured (“z-score”: median about -0.1, highest 2% from about 2 on). The list shows a part of the results.

Each compound was assayed against Metabotropic glutamate receptor 8 (Rattus norvegicus) (UniProt P70579) (assay: mGluR8 Gi/Go-coupled signaling modulation – cell-based, rat, thallium flux, HTS, primary screen (AID 488969)). Details: HEK293 rat mGluR8, GIRK (G protein-gated inwardly rectifying potassium channel) thallium flux, FluoZin2; at 10 µM; stronger effect = higher value; submaximal glutamate (EC20) added with thallium.
Chain of UniProt P70579 (P70579 whole entry, looked up): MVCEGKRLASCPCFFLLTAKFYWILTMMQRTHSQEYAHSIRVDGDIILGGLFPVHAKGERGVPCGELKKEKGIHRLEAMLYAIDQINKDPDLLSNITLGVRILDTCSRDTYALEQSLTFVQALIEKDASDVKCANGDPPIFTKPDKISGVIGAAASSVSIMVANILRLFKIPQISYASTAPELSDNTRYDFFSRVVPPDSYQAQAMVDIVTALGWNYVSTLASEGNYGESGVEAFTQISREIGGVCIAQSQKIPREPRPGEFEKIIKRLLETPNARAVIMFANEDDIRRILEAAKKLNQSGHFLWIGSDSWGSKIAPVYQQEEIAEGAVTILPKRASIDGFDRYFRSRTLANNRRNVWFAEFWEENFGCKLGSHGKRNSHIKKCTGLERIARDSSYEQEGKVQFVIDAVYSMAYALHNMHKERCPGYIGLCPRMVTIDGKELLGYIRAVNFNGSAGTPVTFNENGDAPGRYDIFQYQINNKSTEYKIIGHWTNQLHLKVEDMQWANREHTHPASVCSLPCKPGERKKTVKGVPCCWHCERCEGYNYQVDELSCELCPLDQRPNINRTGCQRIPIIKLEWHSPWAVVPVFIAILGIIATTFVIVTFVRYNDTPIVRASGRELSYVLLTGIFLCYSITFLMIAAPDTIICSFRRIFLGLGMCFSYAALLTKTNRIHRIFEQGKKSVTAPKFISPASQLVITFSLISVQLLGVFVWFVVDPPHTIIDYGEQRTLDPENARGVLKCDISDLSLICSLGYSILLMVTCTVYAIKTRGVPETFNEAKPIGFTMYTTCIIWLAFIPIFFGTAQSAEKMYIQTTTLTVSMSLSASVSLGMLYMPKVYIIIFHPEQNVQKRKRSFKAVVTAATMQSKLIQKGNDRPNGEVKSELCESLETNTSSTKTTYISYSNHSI

SMILES	z-score
O=C(Nc1cccnc1)Nc1ccc2c(c1)OCO2	-0.301
CN(c1ccccc1)S(=O)(=O)c1cccc(C(=O)Nc2ccc3c(c2)CCC3)c1	-0.298
O=S(=O)(c1ccc(Cl)cc1)N1CCCC1c1nc(-c2ccc(Cl)cc2)no1 (stereo not given)	-0.129
C=CCNC(=O)/C(C#N)=C/c1c(C)nn(-c2ccccc2)c1Cl	-0.527
COc1ccccc1OCC(=O)Nc1ccc(O)cc1C(=O)O	0.0858
COc1ccc(NC(=O)CN2C(=O)c3cccc4cccc2c34)c(OC)c1	-0.896
O=C1CC(c2nc3ccccc3[nH]2)CN1c1ccccc1F (stereo not given)	0.118
CCN(CC)C(=O)C1CCCN(Cc2ccc3c(c2)OCO3)C1 (stereo not given)	0.126
c1ccc2[nH]c(SN3CCOCC3)nc2c1	0.258
Cc1ccc(C(=O)/C=C/c2ccc(F)cc2)o1	-0.0458
O=C(/C=C/c1ccc(Cl)cc1)N(c1ccccn1)C1CCCCC1	0.501
COc1cc(OC)cc(C(=O)Nc2c(F)cccc2F)c1	1.78
O=S(=O)(c1ccc2oc3ccccc3c2c1)N1CCCC1	-0.0188
Cc1ccc(Nc2nc(C(=O)NCCCN3CCOCC3)cs2)cc1	-0.316
O=C(NC1CCCCC1)N1CCCC(c2nc(-c3cccs3)no2)C1 (stereo not given)	-0.174
c1ccc(Nc2nc(-c3ccncc3)nc3ccccc23)cc1	-0.181
COc1cccc(CNC(=O)C2CCN(S(=O)(=O)N3CC(C)CC(C)C3)CC2)c1 (stereo not given)	0.0737
Cc1ccccc1OCCCC(=O)Nc1nccs1	2.49
C=CCSc1nc2ccccc2n1C(=O)/C=C/c1cc(OC)c(OC)c(OC)c1	-0.288
Cc1ccc(Cn2nnc3c(=O)n(Cc4cc(C)ccc4C)cnc32)cc1	0.531
Cn1cccc1C(=O)C(=O)Nc1cc(Cl)cc(Cl)c1	-0.161
CCN(C(=O)COc1cc(=O)n(CC)c2ccccc12)c1cc(Cl)ccc1OC	-0.433
CCOC(=O)N1CCN(CC(O)COC2CC(C)CCC2C(C)C)CC1 (stereo not given)	0.0251
CC1(C)OC(=O)N(c2ccccc2)C12C=Cc1c(ccc3ccccc13)O2 (stereo not given)	-0.377

SMILES	z-score
Cc1cc(NS(=O)(=O)c2ccc(Cl)cc2)nn1CC(=O)NCc1ccco1	-0.0635
CC(=O)c1cc(-c2ccccc2)n(CC(=O)Nc2cccc(C)c2C)c1C	0.171
C=CCn1c(COc2ccccc2F)nnc1SCC(=O)N1CC(=O)Nc2ccccc21	-0.268
Cc1ccc(OCC(=O)NC2=NCCS2)cc1	0.87
O=C1CC(Nc2ccc(N3CCOCC3)cc2)C(=O)N1Cc1ccccc1 (stereo not given)	-0.0748
Cc1nnc(Sc2cc(C(=O)NCCCN(C)Cc3ccccc3)c3ccccc3n2)s1	-0.301
COc1cccc(NC(=O)CCCOc2cc(=O)n(C)c3ccccc23)c1	-0.157
Cc1nnc(NC2(C(F)(F)F)C(=O)Nc3c2c(=O)n(C)c(=O)n3C)s1 (stereo not given)	0.75
c1ccc(-c2csc3ncnc(NCCCN4CCOCC4)c23)cc1	1.39
NC(=O)c1ccc(-c2ncc(-c3ccccc3)o2)cc1	-0.252
CC(C)(C)OC(=O)NCCC(=O)Oc1ccc2ccc(=O)oc2c1	-0.0454
CN(CC(=O)N1CCN(c2cccc(Cl)c2)CC1)S(=O)(=O)c1cccs1	-0.142
Cc1ccc(CSc2nnc(-c3ccco3)n2N)cc1	0.202
O=C(N/C(=C\c1cn(-c2ccccc2)nc1-c1ccccc1)C(=O)N1CCOCC1)c1ccccc1	-0.225
O=C(c1ccc(Cl)cc1)[C@@H]1[C@@H]2C(=O)N(c3cccc4ccccc34)C(=O)[C@@H]2C2c3ccccc3C=NN21 (stereo not given in full)	-0.0838
CCOC(=O)C1(P(=O)(c2ccccc2)c2ccccc2)CCC1	0.0878
O=C(c1cc2nc(C3CC3)cc(C(F)(F)F)n2n1)N1CCCC1	-0.161
FC(F)(F)c1cc(-c2ccco2)nc(N2CCOCC2)n1	0.00504
CC(C)(C)C(=O)Nc1ccc(C(=O)OC2CCCCC2)cc1	0.559
CS(=O)(=O)N1CCN(c2nc(-c3ccccc3)cs2)CC1	-0.122
N/C(Cc1cccs1)=N\OC(=O)COc1ccc(Br)cc1Cl	-0.42
CC1(C)Cc2c(sc3c2c(=N)n(Cc2ccco2)c(=O)n3Cc2ccccc2)CO1	-0.918
CCCCCCCC(=O)NNC(=O)CC(=O)Nc1ccccc1C(=O)O	-0.243
Cc1ccccc1-c1nnc(SCC(=O)Nc2cccc(C)c2C)o1	-0.37

SMILES	z-score
O=C(Nc1ccc(Nc2ccccc2)cc1)c1ccc(Br)o1	-0.349
Cc1[nH]nc2c1C(c1ccc3c(c1)OCO3)C(C#N)=C(N)O2 (stereo not given)	-1.05
Cc1ccc(-c2c[n+](CC(=O)Nc3cc(=O)n(C)c(=O)n3C)c3n2CCC3)cc1	-0.368
CCc1nnc2sc(-c3ccc(NC(=O)c4ccco4)cc3)nn12	-0.459
O=C(NCC1CCCO1)c1ccc2c(=O)n(CC3CCCO3)c(=S)[nH]c2c1 (stereo not given)	0.352
CCC(=O)N1CCN=C1SCc1ccccc1Cl	-0.534
Cc1ccc(C(=O)/C=C/c2ccccc2)o1	-0.627
COc1ccc(/C=C(\NC(=O)c2cccs2)C(=O)N2CCOCC2)cc1OC	0.0605
O=C(OCc1ccc(Br)cc1)c1cccc(-c2nnc(-c3ccccc3)o2)c1	-0.109
O=C(CSc1ncn[nH]1)Nc1ccc(Cl)c(Cl)c1	-0.226
Cc1cccc(C(=O)Oc2coc(CSc3nnc(NC(=O)C4CC4)s3)cc2=O)c1	0.102
COc1ccc(CNC(=O)CSc2nc3ccc(N)cc3s2)cc1	-0.0992
CCOc1ccc(Br)cc1S(=O)(=O)Nc1ccc(N2CCOCC2)cc1	1.29
O=c1[nH]c2ccc(S(=O)(=O)N3CCCCC3)cc2o1	0.347
Clc1cc(Br)ccc1OCCOCCOc1cccc2cccnc12	-0.108
CC(/C(O)=C(\C#N)c1nc2ccccc2n1C)N1C(=O)c2ccccc2C1=O (stereo not given)	0.599
CC(=O)Nc1ccc(NC(=O)c2ccc(Cn3cc(Cl)cn3)cc2)cc1	-0.369
O=C(/C=C/c1ccc(Cl)cc1)N1CCN(c2ccc(Cl)cc2[N+](=O)[O-])CC1	-0.222
O=C(COC(=O)/C=C/c1cccc(Cl)c1)NCCc1ccccc1	-0.15
CCOC(=O)c1c(NC(=O)CC2SC(N)=NC2=O)sc2c1CCCC2 (stereo not given)	-1.02
Cc1nc2sc(C(c3cccc(F)c3)N3CCC(C)CC3)c(O)n2n1 (stereo not given)	-1.47
Cc1cc2c(cc1C)N(CC(=O)N1CCCC1)C(=O)CC(c1ccccc1)=N2	-0.328
